Here are results for 58 compounds from ChEMBL document CHEMBL1201862, “PubChem BioAssay data set” (2004).

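Protocol summary: plate cells (96-well), add compound at 5 concentrations, incubate 48 h, interpolate endpoints linearly. GI50: concentration for 50% inhibition of growth.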 Activity calls are given as the source filed them. Cut-off read from the data, not from the text of the source: active = GI50 up to about 1.1 µM and inactive = higher.

The assay has as its system NCI-H322M. In words: NCI tumour cell line growth inhibition, 48 h.
`O=C(O)c1ccccc1-c1ccccc1C(=O)Nc1ccc2c(c1)Cc1ccccc1-2`: the GI50 was inactive: 32.7 µM.

For `C#CCSc1nc(-c2ccco2)n[nH]1`, the GI50 is inactive: > 100 µM.

Consider `O=C(NNC(=O)c1ccccc1O)c1ccco1`, for which the GI50 is inactive: > 100 µM.

Turning to `COC(=O)C(=O)C(C(=O)C(=O)Nc1ccc([N+](=O)[O-])cc1C#N)c1nc2ccc([N+](=O)[O-])cc2nc1O` (stereo not drawn), the GI50 is inactive: > 100 µM.

`COc1ccc(S(=O)(=O)N/N=C/C(=O)O)cc1`: the GI50 is inactive: 942 µM.

Regarding `COc1ccc(-c2oc(/C=N/NC(N)=S)c([N+](=O)[O-])c2-c2ccc(OC)c(OC)c2)cc1OC`, the GI50 is inactive: 55.7 µM.

`O=C1C(/N=N/c2ccc(-c3nc4ccccc4o3)cc2)NC(=S)N1c1ccccc1` (stereo not drawn): the GI50 is inactive: > 100 µM.

Take `NC1=NNC(=O)c2nnc3c(C(=O)O)cnn3c2S1`: the GI50 was inactive: > 100 µM.

As for `CCCC(=O)N[C@@H](Cc1cc(I)c(O)c(I)c1)C(=O)NCCCNCCCCNCCCNC(=O)[C@@H](N)CCCN=C(N)N`, the GI50 was inactive: > 100 µM.

For the compound `Cc1ccc(C2c3c(n(C)c(=O)n(C)c3=O)OC(N(C)C)(N(C)C)C2(F)F)cc1` (stereo not drawn), the GI50 is inactive: > 100 µM.

Regarding `NNC(=S)N1CCN(C(=S)NN)CC1`, the GI50 is inactive: 70.8 µM.

Regarding `Cc1c2ccccc2cc2ccc3oc([N+](=O)[O-])cc3c12`, the GI50 is inactive: > 100 µM.

On to `Cc1ccc(S(=O)(=O)NC(=O)NC(C(=O)O)C(C)C)cc1` (stereo not drawn), for which the GI50 is inactive: > 100 µM.

On to `Cc1cc2c(cc1C)C(=O)/C(=C/c1ccccc1C(=O)O)C2`, for which the GI50 is inactive: 55.6 µM.

As to `N=C(N)Cn1cnc2ccccc21`, the GI50 was inactive: > 100 µM.

On to `CC1(C2(C)OC(=O)c3ccccc32)OC(=O)c2ccccc21` (stereo not drawn), for which the GI50 is inactive: > 100 µM.

On to `CC(C)(Cl)C(Br)CC/C(=C/CBr)CBr.CC(C)(Cl)C(Br)CC/C(=C\CBr)CBr` (stereo not drawn), for which the GI50 is inactive: 14.8 µM.

In the case of `Cc1nc(O)nc(CC(O)(c2ccccc2)c2ccccc2)c1-c1ccccc1`, the GI50 was inactive: > 100 µM.

As to `N#C/C(C(=O)Nc1ccccc1)=C(/N)N1CCCC1`, the GI50 was inactive: > 100 µM.

Take `N#Cc1c(-c2ccccc2)c(/C=N/c2ccc(F)cc2)c(=O)n2c1[nH]c1ccccc12`: the GI50 is inactive: 9.64 µM.

In the case of `Cc1ccc(NC(=O)C2C3CCC(O3)C2C(=O)O)cc1` (stereo not drawn), the GI50 is inactive: > 100 µM.

As for `N#CCN1c2ccccc2CCC1Cl` (stereo not drawn), the GI50 is inactive: > 10 µM.

As to `O=NN1C(c2ccccc2)CC(=NO)CC1c1ccccc1` (stereo not drawn), the GI50 is inactive: > 100 µM.

Turning to `CCN(CC)CCCNc1nccc2c(C)c3c(cc12)c1cnccc1n3C`, the GI50 was active: 0.069 µM.

In the case of `CCOC(=O)C1C2CCC1CC(=NNc1ccc([N+](=O)[O-])cc1[N+](=O)[O-])C2` (stereo not drawn), the GI50 was inactive: > 50 µM.

Regarding `Cc1nc(Nc2ccccc2)sc1C(=O)CC(=O)C(=O)NC12CC3CC(CC(C3)C1)C2`, the GI50 is inactive: > 100 µM.

Regarding `Cn1nc(-c2ccccc2)nc1[N+](=O)[O-]`, the GI50 was inactive: > 10 µM.

For the compound `COC1(OC)C(N(C)C)=C(Cl)C(=O)/C1=C/C=O`, the GI50 was inactive: > 100 µM.

In the case of `C[n+]1c(-c2ccccc2)cc2/c(=C\c3ccc([N+](=O)[O-])cc3)c3ccccc3n21`, the GI50 is inactive: 9.35 µM.

Take `CCN(CC)c1ccc(/C=C/C2=NN(c3cccc(S(=O)(=O)O)c3)C3(C2)C(Cl)C(=O)N3c2nc3ccccc3s2)cc1` (stereo not drawn): the GI50 is inactive: 15.7 µM.

For the compound `O=C(NC1CCCCC1)c1c(O)[nH]c(=S)[nH]c1=O`, the GI50 is inactive: > 100 µM.

On to `CCOC(=O)Cc1ccc(Nc2nc3cc(F)c(F)cc3nc2C(=O)OCC)cc1`, for which the GI50 was inactive: 52.6 µM.

On to `NNC1=N/C(=C\c2ccco2)C(=O)N1`, for which the GI50 was inactive: > 100 µM.

Consider `COC(=O)c1c(O)ccc2c1c1c(n2Cc2ccc(Cl)cc2Cl)C(=O)c2ccccc2C1=O`, for which the GI50 was inactive: 13.6 µM.

Regarding `CC1(C)CCC2=C(O1)/C(=N\Nc1ccc(S(N)(=O)=O)cc1)c1ccccc1C2=O`, the GI50 was inactive: 13.7 µM.

As to `O=c1n(CC2CO2)c2ccccc2n1CC1CS1` (stereo not drawn), the GI50 is inactive: > 100 µM.

On to `COC(=O)/C=C\S/C(=C(/c1ccccc1)n1ccc(C(=O)OC)n1)c1ccccc1`, for which the GI50 is inactive: 36.2 µM.

On to `COC(=O)/C=C/[C@H]1[C@H](C)N1S(=O)(=O)c1ccc(C)cc1` (stereo partly drawn), for which the GI50 is inactive: > 100 µM.

For `COc1ccc(/N=N/C(=O)NC(CC(C)C)C(=O)NCC(=O)O)cc1` (stereo not drawn), the GI50 is inactive: > 45.8 µM.

On to `CCCCCCCCOC(=O)C12Oc3ccc(-c4ccc5c(c4O)C(=O)C4=C(O)CC(C)C(O)C4(C(=O)OCCCCCCCC)O5)c(O)c3C(=O)C1=C(O)CC(C)C2O` (stereo not drawn), for which the GI50 was inactive: 56.4 µM.

Consider `N#Cc1c(-c2ccccc2)c2c([nH]c1=O)-c1cc([N+](=O)[O-])ccc1CCC2`, for which the GI50 was inactive: 35.5 µM.

`O=C(O)CCC(NC(=O)c1ccc(Nc2nc3cc(C(F)(F)F)ccc3nc2-c2ccccc2)cc1)C(=O)O` (stereo not drawn): the GI50 is inactive: > 94.2 µM.

With `CCCCCCCCCCCCCCCCNC(=O)/C(O)=C/C(=O)c1ccc(C)cc1`, the GI50 was inactive: > 10 µM.

Take `Cc1cc(Br)c(N2C3=C(CC4=C2CCCC4=O)C(=O)CCC3)c(Br)c1`: the GI50 is inactive: > 100 µM.

Turning to `NNC(=O)Cc1cccnc1`, the GI50 is inactive: > 100 µM.

For the compound `COc1ccc(Nc2nn3c(=O)c4c(C)c(C)sc4nc3s2)cc1`, the GI50 was inactive: 31.2 µM.

For `O=C(Nc1ccc(F)cc1)C(=O)C(C1OC(=O)c2ccccc21)[N+](=O)[O-]` (stereo not drawn), the GI50 was inactive: > 100 µM.

On to `CCCCc1ccc2[n+](c1)C(C(=O)OCC)=PC2` (stereo not drawn), for which the GI50 was inactive: > 100 µM.

Consider `CC(C)(C)[Si](OC1CCOC1=O)(c1ccccc1)c1ccccc1` (stereo not drawn), for which the GI50 is inactive: 38.7 µM.

For the compound `COc1cc2c(cc1OC)C(=O)N(c1ccc(O)cc1)C2=O`, the GI50 was inactive: > 100 µM.

For `O=C1C(Cl)=C(Nc2ccc(S(=O)(=O)O)cc2)C(=O)c2ccccc21`, the GI50 is inactive: 33.7 µM.

With `COc1ccc([C@H](NC(=O)c2ccccc2)[C@@H](O)C(=O)O[C@H]2C[C@@]3(O)C(OC(=O)c4ccccc4)C4[C@](C)(C(=O)[C@H](OC(C)=O)C(=C2C)C3(C)C)[C@@H](O)C[C@H]2OC[C@@]42OC(C)=O)cc1` (stereo partly drawn), the GI50 is active: 0.0238 µM.

Take `COC(=O)[C@]1(c2cc3ccccc3[nH]2)CC2CN(CC(=O)N(C)OC)C1CC2(OC)OC` (stereo partly drawn): the GI50 is inactive: > 100 µM.

As for `COc1ccc(/C=C/C(=O)c2ccc(OC(=O)/C=C/c3ccccc3)cc2)cc1`, the GI50 is inactive: 24 µM.

Take `C[N+](C)(CCNc1ccc(NCC[N+](C)(C)Cc2ccc([N+](=O)[O-])cc2)c2c1C(=O)c1ccccc1C2=O)Cc1ccc([N+](=O)[O-])cc1`: the GI50 is inactive: > 100 µM.

Consider `COc1ccc(-c2cc(O)c3cc(C)cnc3n2)cc1`, for which the GI50 was inactive: > 100 µM.

On to `Oc1cc(-c2cccc(C(F)(F)F)c2)nc2cc3c(cc12)OCO3`, for which the GI50 is inactive: 2.24 µM.

In the case of `CCN(CCCl)CCCCCNc1c2ccccc2nc2ccc(OC)cc12`, the GI50 was active: 0.71 µM.
